Test results published in PubChem BioAssay AID938 (National Center for Advancing Translational Sciences (NCATS), 2007).
The whole screen tested about 73,000 compounds, of which about 1,800 (2.5%) were called active. Inconclusive means that the source gave no clear call. Such entries were picked first, then a sample of the others. Calls come from the whole dose curve; as a rule, active = well fitted activation curve with a large enough effect; inconclusive = small, poorly fitted or top-dose-only effect; inactive = no such curve, though single readings can be large or run the other way. No potency is given beside an inconclusive call; the fits are too rough.

Test: qHTS Assay for Agonists of the Thyroid Stimulating Hormone Receptor: Activators of Intracellular cAMP Concentrations in Parental HEK 293; note: nearly all actives have a fitted effect of over 55% in size; for activation: % of control where 0% means no effect
Settings: parental HEK293 CNG cAMP sensor, membrane potential fluorescence; activation: at 57.1 µM (top of the series) unless noted
Summary of the method: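 Counterscreen for endogenous-receptor signalling: CNG-channel HEK 293 cells report cAMP rise by membrane depolarization. After 60 min dye equilibration with 100 uM RO 20-1724, compounds incubated 30 min before bottom-read fluorescence at 590 nm.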
Potency is the fitted concentration of half-maximal effect; tags give direction and shape of the fitted curve.

Structure (SMILES) | activation | Potency
CCC(=O)[C@]12O[C@@]3(C4C(=O)OCCC41)N(Cc1ccccc1)C(C)=C(C(=O)OC)C(c1ccccc1)N3C2=O (stereo partly drawn) | inactive: 0.504% [at 11.4 µM] | 
O=c1n(Cc2ccccc2Cl)c2sc3c(c2c2ncnn12)CCCC3 | inactive: 28.2% | 
CCOC(=O)c1c(C)oc2ccc(O)c(CN3CCCCC3)c12 |  | active: 15.8 µM
O=C(O)c1ccccc1C(=O)Nc1cc2c(cc1Br)-c1ccccc1C2=O | inactive: -18.8% [at 11.4 µM] | 
O=P(O)(O)C(O)C(F)(F)C(F)(F)C(F)(F)C(F)F (stereo not drawn) |  | active: 3.98 µM
Cc1nc2ccccc2c2oc(C(=O)NCC3COc4ccccc4O3)cc12 (stereo not drawn) |  | active: 25.1 µM
COc1ccc(-c2ccc(-c3noc(-c4ccccc4C)n3)c(OC)n2)cc1 | inactive: 10.4% | 
Cc1ccc(NC(=O)Cn2cccc2)cc1C |  | inconclusive [activator, full curve]
O=C1c2ccccc2C(=O)N1CCCCSc1nnc(-c2ccc(OC(F)F)cc2)o1 |  | inconclusive [activator, single point]
N#Cc1ccc2ccn(CC(=O)NC3CCCCCC3)c2c1 |  | active: 3.16 µM
CCCC[C@@H]1C[C@H]1C(NC(=O)Cc1ccccc1)c1ccc(Cl)cc1 (stereo partly drawn) |  | inconclusive [activator, full curve]
CC(=O)N1CCC2(CCCN(C(c3ccccc3)c3ccccc3)C2)CC1 |  | active: 15.8 µM
CC(=C1C(=O)c2ccccc2C1=O)N1CCN(Cc2ccccc2)CC1 |  | inconclusive [activator, single point]
CCCn1nnc(NC(=O)COc2ccc(C3CCCCC3)cc2)n1 |  | inconclusive [activator, full curve]
NC(N)=N[C@H](CCC(=O)O)C(=O)O | inactive: 4.82% | 
CC[N+](CC)(CC(=O)Nc1c(C)cccc1C)Cc1ccccc1 |  | inconclusive [activator, partial curve]
C/C(=N/NC(=O)c1ccncc1)c1ccccc1Cl | inactive: -1.84% [at 11.4 µM] | 
Cn1nc(C(=O)NCc2cccnc2)c2ccccc2c1=O | inactive: -1.26% | 
COC(=O)[C@@H]1CC[C@H](C)[C@@H](c2ccc(C)cc2)N1C(=O)c1ccc(/C=N\OCC[C@@H]2C=C[C@H](OC(C)=O)[C@H](COC(C)=O)O2)cc1 | inactive: 16.8% [at 11.4 µM] | 
CC(C)Sc1oc(-c2ccco2)nc1S(=O)(=O)c1ccc(F)cc1 | inactive: 15.2% | 
Cc1cccc(CNc2cc(-c3ccc(C(=O)N(C)C)cc3)ncn2)c1 |  | inconclusive [activator, full curve, poor fit]
CCOc1ccc(C2/C(=C(\O)c3ccc(OC)c(OC)c3)C(=O)C(=O)N2c2cc(C)on2)cc1OC (stereo not drawn) |  | inconclusive [activator, single point]
COc1ccc(-c2nnn(CC(=O)c3ccc4c(c3)OCCO4)n2)cc1OC |  | inconclusive [activator, single point]
Cc1cccc(Cn2c(C(C)O)nc3ccccc32)c1 (stereo not drawn) |  | inconclusive [activator, single point]
Cc1ccc2cc(CN(Cc3ccco3)C(=O)NCc3ccccc3)c(=O)[nH]c2c1C |  | inconclusive [activator, single point]

Structure (SMILES) | activation | Potency
CC(=O)c1ccc(-n2nncc2C)cc1 |  | inconclusive [activator, single point]
CC(C)COc1ccc(C(=O)OC2CC(C)(C)OCC2CN(C)C)cc1 (stereo not drawn) |  | inconclusive [activator, full curve]
CCOC(=O)c1c(C)c(C(=O)NCc2ccc3c(c2)OCO3)c(C)n1CC | inactive: 0.854% | 
CCc1c(C)c2c(C)[nH]nc2oc1=O |  | inconclusive [activator, single point]
Cc1ccc(C)c(N2CCN(C(=O)CCCCn3c(=O)[nH]c4ccccc4c3=O)CC2)c1 |  | inconclusive [activator, partial curve]
COc1ccc(-c2cc(C(=O)OCC(=O)N(C)C)c3ccccc3n2)cc1 | inactive: 12.5% | 
COc1ccccc1CNc1ncnc2ccc(-c3ccccc3OC)cc12 | inactive: 20.1% | 
CCOC(=O)N1CCC(NC(=O)C(CC(C)C)NC(=O)C2CCCCC2)CC1 (stereo not drawn) | inactive: 11.3% | 
Cc1c(NC(=O)c2ccc(N3C(=O)C4C5C=CC(C5)C4C3=O)cc2)c(=O)n(-c2ccccc2)n1C (stereo not drawn) |  | inconclusive [activator, partial curve]
O=C(c1cc(C(F)(F)F)cc(C(F)(F)F)c1)N1CCC2(CCCN(c3ncccn3)C2)CC1 |  | inconclusive [activator, partial curve]
CCCS(=O)(=O)N1CCCC(C(=O)NCCc2ccc(OC)c(OC)c2)C1 (stereo not drawn) |  | inconclusive [activator, partial curve]
O=c1c(CCc2ccccc2)nc2cnc(Nc3ccccc3)nc2n1Cc1cccs1 |  | active: 1.26 µM
CCn1nc(NC(=O)c2ccco2)c2cc3ccc(C)cc3nc21 | inactive: 1.12% | 
O=S(=O)(c1ccccc1)N1CCC2(CCN(c3ccccc3)CC2)CC1 | inactive: 10.8% | 
O=C(O)c1oc2ccccc2c1CSc1ccccn1 |  | inconclusive [activator, single point]
CCOC(=O)c1cc2c(=O)n3ccccc3nc2n(CCCOC)c1=NC(=O)C(C)(C)C | inactive: 3.31% | 
CC1(c2ccc3noc(-c4ccccc4)c3c2)OCCO1 |  | inconclusive [activator, partial curve]
CCCn1c(=O)c(C(=O)NCc2ccncc2)c(O)c2ccccc21 |  | inconclusive [activator, single point]
Cc1cc(C(=O)NCc2ccco2)cs1 |  | inconclusive [activator, single point]
O=c1[nH]c2ccc(S(=O)(=O)N3CCN(c4ccccc4F)CC3)cc2s1 |  | inconclusive [activator, partial curve]
ON=Cc1cccn1-c1ccccc1 | inactive: 15.1% | 
CCN(CC)S(=O)(=O)c1ccc2oc(C(=O)N3CCCCCC3)c(C)c2c1 |  | inconclusive [activator, partial curve]
CC(C)CC1N=C2c3ccccc3N=C(SCc3cc(=O)n4ccccc4n3)N2C1=O (stereo not drawn) | inactive: 14.6% | 
CN(C)Cc1ccccc1-c1nc(NC2CC2)c2ccccc2n1 |  | inconclusive [activator, partial curve]
CCn1c(CSc2nc3ccccc3s2)nc2ccccc21 |  | active: 3.98 µM

Structure (SMILES) | activation | Potency
Cn1c(=O)c(-c2ccccc2)nc2cncnc21 |  | active: 3.98 µM
COc1ccc(Oc2ncc3nc(C)c(=O)n(Cc4ccc(F)cc4)c3n2)cc1 |  | active: 15.8 µM
O=C(COC(=O)c1cnccn1)c1ccc2c(c1)CCCC2 | inactive: 5.94% | 
Cn1cc(C(=O)c2ccc(F)cc2)cc1-c1nc2ccccc2n1C |  | inconclusive [activator, full curve]
Cc1c(C(=O)N2CCCCCC2)oc2ccccc12 |  | inconclusive [activator, single point]
CC(=O)NC1C(=O)N=C(SCC(=O)NC(C)c2ccccc2)NC1=O (stereo not drawn) |  | active: 15.8 µM
O=C1c2cccnc2C(=O)N1Cc1cccs1 |  | inconclusive [activator, full curve, poor fit]
COC(=O)[C@@]1(Cc2ccc(OC)cc2)[C@H]2c3cc(C(=O)N(C)C)n(Cc4cccc5ccccc45)c3C[C@H]2CN1C(=O)c1ccccc1 |  | inconclusive [activator, full curve]
COc1ccccc1-c1cc(NCc2ccccc2)ncn1 |  | inconclusive [activator, partial curve]
CCCCNC(=O)CSc1nc2cc3c(cc2c(=O)n1CCCN(CC)CC)OCO3 |  | inconclusive [activator, partial curve]
COc1ccccc1OCc1nnc(SCC(=O)c2cc(Cl)ccc2OC)o1 |  | inconclusive [activator, single point]
CC(C)n1c(C(=O)OCC(=O)NCc2ccc3c(c2)OCO3)cc2occc21 |  | active: 15.8 µM
CCN1C(=O)[C@H]2[C@H]3[C@H](O)[C@H](O)C/C(=N/OCC[C@H]4C=C[C@H](OC(C)=O)[C@@H](COC(C)=O)O4)[C@@H]3CC[C@@H]2C1=O | inactive: 4.66% [at 11.4 µM] | 
O=C(O)c1cc([N+](=O)[O-])ccc1NCCCc1ccccc1 |  | inconclusive [activator, single point]
COC(=O)c1ccc(CSc2nc3c(cnn3-c3ccc(F)cc3)c(=O)[nH]2)o1 | inactive: -10% | 
COc1ccc(NC(=O)CSc2nnc(-c3ccoc3C)n2CCc2ccccc2)cc1 | inactive: 20.8% | 
CSc1nsc(SCC(=O)N2CCCc3ccccc32)n1 |  | inconclusive [activator, single point]
CCC1Oc2ccc(C)cc2N(CC(=O)NCc2ccccc2OC)C1=O (stereo not drawn) |  | inconclusive [activator, single point]
CCCCCN=c1ccn(Cc2ccccc2)c2ccccc12 |  | active: 15.8 µM
COc1cc2c(cc1OC)[C@@H]1C(=O)c3ccc4c(c3O[C@@H]1CO2)C=CC(C)(C)O4 |  | active: 20 µM
CC1CCN(c2nc3c(c(=O)n(C)c(=O)n3C)n2Cc2ccccc2)CC1 |  | inconclusive [activator, partial curve]
CCOc1ccc(-c2nc(CSc3nncs3)cs2)cc1OC | inactive: 6.61% | 
CCc1c(C)nc2ncnn2c1N1CCC(C(=O)Nc2ccc(C)cc2)CC1 |  | inconclusive [activator, full curve, poor fit]
